Among all 43,000 compounds or so, about 200 (0.47%) were called active. Roughly 12% stayed inconclusive and do not appear here. Calls follow the shape of the dose curve; as a rule, active = well fitted cell-killing curve with a large enough effect; inconclusive = small, poorly fitted or top-dose-only effect, or effect the other way; inactive = flat fitted curve, though single readings scatter. The list shows a part of the results.
Experiment: Cell viability qHTS assay in S16 Pmp22-F2sN cells; also: nearly all actives have a fitted effect of over 65% in size
Details: S16 Pmp22-F2sN Schwann cells viability, CellTiter-Glo, 24 h; series mostly up to 57.5 µM; activity change, negative = cytotoxicity: at the top concentration
Method in brief: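 S16 Pmp22-F2sN Schwann cells (500-1,000/well) in phenol-red-free DMEM with 10% FBS received 23 nL compound by pin tool for 24 h at 37 °C. Viability was then read as CellTiter-Glo luminescence after 15 min at room temperature.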
% is scaled to controls: 0 for no effect and ±100 for the full control effect.

SMILES	activity change, negative = cytotoxicity
CC1=C(c2ccc(C)cc2)S(=O)(=O)NC1=NCCCN1CCN(c2ccccc2F)CC1	inactive: -16.1%
Cc1nn(C)c2c1c(C(F)(F)F)cc(=O)n2CC(=O)NCCC(C)C	inactive: 0.0454%
Cc1ccc(CN2CCCn3nc(C(=O)NC(C)C)cc3C2=O)cc1	inactive: 14.8%
Cc1ccc(N2CCN(S(=O)(=O)c3cc(C(=O)Nc4cc(Cl)cc(Cl)c4)ccc3F)CC2C)cc1 (stereo not given)	inactive: -21.9%
CC(=O)Nc1nonc1-c1nnc(SCC(=O)Nc2cccc(F)c2)n1-c1ccccc1	inactive: -0.712%
COC(=O)c1scc(-c2ccc(C)cc2)c1S(=O)(=O)Nc1ccc(F)cc1F	inactive: 1.84%
COc1ccc(NC(=O)Cn2c(=O)n(Cc3nc(-c4ccccc4)no3)c(=O)c3cc4c(cc32)OCO4)c(OC)c1	inactive: -7.68%
O=C(Nc1ccc2oc(-c3cccnc3)nc2c1)c1ccc(Br)cc1	inactive: 4.44%
Cc1nn(CC(=O)NCc2ccc(Cl)cc2)c(=O)c2cc3sccc3n12	inactive: 12.8%
COc1ccc(Oc2c(C(F)(F)F)oc3c(CN4CCCC(C)C4)c(O)ccc3c2=O)cc1 (stereo not given)	inactive: 5.57%
COc1ccccc1N1CCN(c2ccc(=O)n(CC(=O)NCc3ccc(OC(C)C)cc3)n2)CC1	inactive: -13.9%
Cc1ccc(NC(=O)Cn2cc3c(n2)CCCC3)c(Cl)c1	inactive: 1.95%
COc1ccc(C)cc1NC(=O)Cn1c(=O)c(C(F)(F)F)nc2ccccc21	inactive: 11.9%
CCn1c(C(=O)NCc2ccc(OC(C)C)cc2)cc2oc3ccccc3c21	inactive: -0.599%
CCOc1ccc(-n2c(SCC(=O)N3CCC(C)CC3)nc3c([nH]c4ccccc43)c2=O)cc1	inactive: 14.5%
Cc1ccc(C)c(N2CCN(C(=O)c3cc(C)nc4c3c(C)nn4-c3cccc(F)c3)CC2)c1	inactive: 4.98%
Cc1ccc(C)c(N2CCN(c3ccc4cc(S(=O)(=O)N5CCC(C)CC5)ccc4n3)CC2)c1	inactive: -3.3%
CCOc1ccc(C(=O)NCCc2sc(-c3ccc(OC)c(OC)c3)nc2C)cc1	inactive: 1.45%
Cc1ccccc1OCC(=O)Nc1sc2c(c1C(=O)OC(C)C)CCCC2	inactive: 2.56%
O=C(Nc1cc(Cl)cc(Cl)c1)c1ccc2c(c1)N(Cc1cccc(Cl)c1)C(=O)c1ccccc1S2=O (stereo not given)	inactive: 0.287%

SMILES	activity change, negative = cytotoxicity
COC(=O)c1ccc(C2c3c(oc4ccccc4c3=O)C(=O)N2c2nc(C)c(C(=O)OC)s2)cc1 (stereo not given)	inactive: 2.15%
COc1ccccc1NC(=O)c1cc(S(=O)(=O)N2CCN(c3ccccc3Cl)CC2)ccc1F	inactive: 0.536%
Cc1nn(CC(=O)O)c(=O)c2cc3cc(F)ccc3n12	inactive: 1.04%
COc1ccc2c(CNCc3cccs3)c(C(=O)O)n(Cc3ccc(C)cc3)c2c1	inactive: 5.3%
Cc1cccc(-n2c(=O)c3c(c4cc(C)ccc4n3C)n(CC(=O)NCC3CCCO3)c2=O)c1 (stereo not given)	inactive: -2.06%
CCCOc1ccc(C(=O)Nc2cc3c(cc2N2CCOCC2)n(C)c(=O)n3C)cc1	inactive: -3.12%
Cc1oc(-c2cccc(Cl)c2)nc1CS(=O)(=O)CC(=O)NCc1ccccc1Cl	inactive: -11.7%
Cc1ccccc1Cn1c2ccccc2c2cnn(CC(=O)NC(C)CCc3ccccc3)c(=O)c21 (stereo not given)	inactive: -9.66%
CCc1ccc2oc(C(=O)Nc3c(C)n(C)n(-c4ccccc4)c3=O)cc(=O)c2c1	inactive: 0.636%
N#Cc1ccc(C(=O)NCc2ccc3c(c2)CCN3C(=O)c2ccc(F)cc2)cc1	inactive: -6.54%
CCOC(=O)c1ccc(N2C(=O)c3n[nH]c(C)c3C2c2ccccc2OC)cc1 (stereo not given)	inactive: 5.91%
Cc1cccc(Cn2nc(C)n3c(cc4cc(C)ccc43)c2=O)c1	inactive: 0.162%
COC(=O)c1ccc(NC(=O)CN(CCc2ccccc2)S(=O)(=O)c2ccc(OC)cc2)cc1	inactive: 5.39%
CCOc1ccccc1NC(=O)N(Cc1ccc(F)cc1)C1CCN(CC)CC1	inactive: 11%
Cc1ccsc1CN(C(=O)c1oc2ccc(F)cc2c1C)C1CCS(=O)(=O)C1 (stereo not given)	inactive: 1.63%
Cc1ccc(CNC(=O)CC(C)CC2=NS(=O)(=O)c3ccccc3N2)cc1 (stereo not given)	inactive: 2.47%
CCc1ccc(N2CCn3c2nc2c3c(=O)n(C/C=C/c3ccccc3)c(=O)n2C)cc1	inactive: 0.248%
COc1ccc(NC(=O)c2c(NCc3ccc(N(C)C)cc3)sc3c2CCC3)cc1	inactive: -3.72%
Cc1ccc(C)c(-n2c3nc(=O)[nH]c(=O)c-3cc3c(C)nn(-c4ccccc4)c32)c1	inactive: -1.44%
COc1cccc(CNS(=O)(=O)c2cc3[nH]c(=O)c(=O)[nH]c3cc2C)c1	inactive: 13.8%

SMILES	activity change, negative = cytotoxicity
Cc1ccc(Nc2ncc(C(=O)N3CCN(c4ccc(F)cc4)CC3)c3ccccc23)cc1Cl	inactive: -7.28%
CCOc1ccc(-c2nonc2NC(=O)c2oc3cc(C)c(C)cc3c2C)cc1OCC	inactive: -10.3%
Cc1ccc(NC(=O)C2CCCN2S(=O)(=O)c2cccc3nsnc23)c(C)c1 (stereo not given)	inactive: -4.47%
CCCCn1c(=O)c2oc3ccccc3c2n(Cc2cccc(F)c2)c1=O	inactive: -3.27%
CCC(C)Cn1c(/C=C/c2ccccc2)nc2ccccc21 (stereo not given)	inactive: -20.8%
O=C(CSc1oc(-c2ccco2)nc1S(=O)(=O)c1ccc(Br)cc1)c1ccccc1	inactive: -13.3%
CCS(=O)(=O)c1ccc(O)c(Nc2cc(C)nc(SC)n2)c1	inactive: -20.7%
Cc1ccc(NC2=C(CC(=O)O)C(c3ccc(F)cc3)N(c3ccc(C)cc3)C2=O)cc1 (stereo not given)	inactive: 1.16%
CC(C)c1cnc2c(c1SCC(=O)Nc1ccc(OC(F)(F)F)cc1)c(=O)n(C)c(=O)n2C	inactive: 3.29%
O=C(CCCN1C(=O)c2cccnc2Oc2ccc(Cl)cc21)NCc1ccccc1F	inactive: -9.6%
CCc1nnc2c(Nc3cccc(F)c3)nc3ccc(C(=O)c4ccccc4)cc3n12	inactive: -17.4%
CCOC(=O)c1cccc(NC(=O)c2cc3c(=O)n(C)c4ccccc4c3n2C)c1	inactive: 13.2%
Cc1ccc(CNC(=O)CCN2C(=O)COc3ccc(C)cc32)cc1	inactive: 22%
Cc1ccc(S(=O)(=O)N2CCc3cc(C(=O)Nc4ccc(C(F)(F)F)cc4)ccc32)cc1	inactive: -4.33%
Cc1oc(-c2ccccc2Cl)nc1CS(=O)CC(=O)NCc1ccc(Cl)cc1 (stereo not given)	inactive: 0.815%
COc1ccc(CCNC(=O)CSc2cn(CCNC(=O)c3cccc(C(F)(F)F)c3)c3ccccc23)cc1OC	inactive: -14.7%
CCC1CN(C(=O)Nc2cccc3c2CCCC3)c2cc(Cl)ccc2O1 (stereo not given)	inactive: -13.3%
O=C(Cn1ncc2ccsc2c1=O)N1CCN(c2ccc(F)cc2)CC1	inactive: 0.358%
Cc1ccc(-n2ncc3c(N4CCC(C(N)=O)CC4)ncnc32)cc1	inactive: 12.2%
COc1cccc(CNC(=O)C(C)n2ncn3cccc3c2=O)c1OC (stereo not given)	inactive: 5.13%

Source: PubChem BioAssay AID1508642 (National Center for Advancing Translational Sciences (NCATS), 2021)
